Literature values as cited in paper PMC11006913.
Numbering of substitutions follows the chain as printed. The list shows a part of the results.

Tests used:
Settings in all cases: PBM; conditions not shown; double strand, one strand shown; scale: upbm affinity estimate (log intensity, higher = more binding, comparable within an allelic series)
ARX (Homo sapiens) = ARX (Homo sapiens) (UniProt Q96QS3)
ARX L343Q (Homo sapiens) = ARX L343Q (Homo sapiens) (UniProt Q96QS3)
ARX P353L (Homo sapiens) = ARX P353L (Homo sapiens) (UniProt Q96QS3)
ARX P353R (Homo sapiens) = ARX P353R (Homo sapiens) (UniProt Q96QS3)
ARX R332H (Homo sapiens) = ARX R332H (Homo sapiens) (UniProt Q96QS3)
ARX T333N (Homo sapiens) = ARX T333N (Homo sapiens) (UniProt Q96QS3)
[1] = biological target: T1, HESX1 E149K (Homo sapiens) (UniProt Q9UBX0)
T1 sequence: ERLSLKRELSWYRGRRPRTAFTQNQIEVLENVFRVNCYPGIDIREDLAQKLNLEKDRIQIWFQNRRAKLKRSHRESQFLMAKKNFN

[2] = biological target: T2, HESX1 N125S (Homo sapiens) (UniProt Q9UBX0)
T2 sequence: T1 sequence with N31S, K55E

[3] = biological target: T3, HESX1 R160C (Homo sapiens) (UniProt Q9UBX0)
T3 sequence: T1 sequence with K55E, R66C

ISX (Homo sapiens) = ISX (Homo sapiens) (UniProt Q2M1V0)
ISX R83Q (Homo sapiens) = ISX R83Q (Homo sapiens) (UniProt Q2M1V0)
[4] = biological target: PROP1 R112Q (Homo sapiens) (UniProt O75360)
[5] = biological target: PROP1 R99Q (Homo sapiens) (UniProt O75360)

Row | Sequence | binding signal (ARX (Homo sapiens)) | binding signal (ARX L343Q (Homo sapiens)) | binding signal (ARX P353L (Homo sapiens)) | binding signal (ARX P353R (Homo sapiens)) | binding signal (ARX R332H (Homo sapiens)) | binding signal (ARX T333N (Homo sapiens)) | binding signal [1] | binding signal [2] | binding signal [3] | binding signal (ISX (Homo sapiens)) | binding signal (ISX R83Q (Homo sapiens)) | binding signal [4] | binding signal [5]
1 | ACAATTAG [8-mer ACAATTAG] | 12.7 | 10.9 | 12.3 | 10.7 | 11 | 11.8 | 11.5 | 11.6 | 10.4 | 14.8 | 13.6 | 12.7 | 12.2
2 | ATAATTAC [8-mer ATAATTAC] | 12.9 | 11 | 12.4 | 10.9 | 11.1 | 12 | 11.7 | 12.3 | 10.4 | 15.1 | 13.7 | 12.7 | 12.2
3 | CGTAATTA [8-mer CGTAATTA] | 13.1 | 11 | 12.6 | 10.9 | 11.1 | 12.1 | 11.7 | 12.4 | 10.4 | 15.2 | 14 | 12.8 | 12.4
4 | CCCAATTA [8-mer CCCAATTA] | 12.9 | 11 | 12.8 | 10.8 | 11.1 | 12.2 | 12 | 12.8 | 10.5 | 15.3 | 14.5 | 13 | 12.6
5 | CTAATTAC [8-mer CTAATTAC] | 13.3 | 10.9 | 12.9 | 10.8 | 11 | 12.3 | 11.8 | 13 | 10.4 | 15.7 | 14.8 | 12.9 | 12.5
6 | CTCAATTA [8-mer CTCAATTA] | 12.8 | 10.8 | 12.8 | 10.7 | 11 | 12 | 11.8 | 12.4 | 10.3 | 15.1 | 14 | 12.8 | 12.3
7 | AGTAATTG [8-mer AGTAATTG] | 12.6 | 11 | 12.3 | 10.9 | 11.1 | 11.8 | 11.5 | 11.7 | 10.5 | 14.8 | 13.2 | 12.7 | 12.3
8 | AATTAGCG [8-mer AATTAGCG] | 12.9 | 10.9 | 12.5 | 10.7 | 10.9 | 12.1 | 11.4 | 11.4 | 10.3 | 14.9 | 13.7 | 12.7 | 12.3
9 | GTCAATTA [8-mer GTCAATTA] | 12.9 | 10.9 | 12.7 | 10.7 | 10.9 | 12.1 | 11.8 | 12.6 | 10.2 | 15.4 | 14.4 | 12.8 | 12.3
10 | CCAATTAC [8-mer CCAATTAC] | 12.9 | 10.9 | 12.8 | 10.7 | 11.1 | 12.2 | 11.9 | 12.4 | 10.4 | 15.3 | 14.1 | 13 | 12.6
